# Reference: US20240287186A1
# How the values were obtained:
# [1] = biological target: CD3 (target of Table E-1) (UniProt P07766); test: Biacore (SPR; format not stated)
# [2] = biological target: CD3 (target of Table E-1) (UniProt P07766); test: FACS (cells not stated)
Binder,Kd [1] [nM],EC50 [2] [nM]
"Anti-CD3 Fab 7195P (Fab, V domains shown) VH: EVQLVESGGGLVQPGRSLRLSCAASGFTFADYTMHWVRQAPGKGLEWVSDISWNSGSIAYADSVKGRFTISRDNAKNSLYLQMNSLRTEDTAFYYCAKDSRGYGHYKYLGLDVWGQGTTVTVSS VL: [in this place about 100 residues]",0.0383,
"Anti-CD3 Fab 7221G (Fab, V domains shown) VH: EVQLVESGGGLVQPGRSLRLSCAASGFTFDDYSMHWVRQAPGKGLEWVSGISWNSGSKGYADSVKGRFTISRDNAKNSLYLQMNSLRAEDTALYYCAKYGSGYGKFYHYGLDVWGQGTTVTVSS VL: [in this place about 100 residues]",24.9,13
"Anti-CD3 Fab 7221G20 (Fab, V domains shown) VH: EVQLVESGGGLVQPGRSLRLSCAASGFTFDDYSMHWVRQAPGKGLEWVSGISWNSGSIGYADSVKGRFTISRDNAKNSLYLQMNSLRAEDTALYYCAKYGSGYGKFYYYGMDVWGQGTTVTVSS VL: [in this place about 100 residues]",320,540
